Measured values as given in the supplement of paper PMC8728848.
Some of the results follow.

Key:
Assay in all cases: glycan array binding signal (z-score within array); higher = stronger binding
Settings in all cases: glycan notation: IUPAC condensed, linker removed
Gal(a1-6)Glc = molecular target: Gal(a1-6)Glc
Summary of the method: (§1)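 The binding signal is a Z-score computed within each array and averaged over linkers. Arrays of the same protein sequence at different concentrations or buffers were also averaged together. Data originate from 3228 arrays in the Consortium for Functional Glycomics database, kept only where the protein sequence was available.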

Gal(b1-2)Gal = molecular target: Gal(b1-2)Gal
Summary of the method: as §1

Gal(b1-3)Gal = molecular target: Gal(b1-3)Gal
Summary of the method: as §1

Gal(b1-3)Gal(b1-4)GlcNAc = molecular target: Gal(b1-3)Gal(b1-4)GlcNAc
Summary of the method: as §1

Gal(b1-3)GalNAc = molecular target: Gal(b1-3)GalNAc
Summary of the method: as §1

[1] = molecular target: Gal(b1-3)GalNAc(a1-3)[Fuc(a1-2)]Gal(b1-4)Glc
Summary of the method: as §1

[2] = molecular target: Gal(b1-3)GalNAc(a1-3)[Fuc(a1-2)]Gal(b1-4)GlcNAc
Summary of the method: as §1

Gal(b1-3)GalNAc(b1-3)Gal = molecular target: Gal(b1-3)GalNAc(b1-3)Gal
Summary of the method: as §1

[3] = molecular target: Gal(b1-3)GalNAc(b1-3)Gal(a1-4)Gal(b1-4)Glc
Summary of the method: as §1

[4] = molecular target: Gal(b1-3)GalNAc(b1-4)Gal(b1-4)Glc
Summary of the method: as §1

[5] = molecular target: Gal(b1-3)GalNAc(b1-4)[Neu5Ac(a2-3)]Gal(b1-4)Glc
Summary of the method: as §1

Gal(b1-3)GlcNAc = molecular target: Gal(b1-3)GlcNAc
Summary of the method: as §1

[6] = molecular target: Gal(b1-3)GlcNAc(a1-3)Gal(b1-4)GlcNAc
Summary of the method: as §1

[7] = molecular target: Gal(b1-3)GlcNAc(a1-6)Gal(b1-4)GlcNAc
Summary of the method: as §1

Gal(b1-3)GlcNAc(b1-2)Man = molecular target: Gal(b1-3)GlcNAc(b1-2)Man
Summary of the method: as §1

[8] = molecular target: Gal(b1-3)GlcNAc(b1-2)Man(a1-3)[Gal(b1-3)GlcNAc(b1-2)Man(a1-6)]Man(b1-4)GlcNAc(b1-4)GlcNAc
Summary of the method: as §1

[9] = molecular target: Gal(b1-3)GlcNAc(b1-2)Man(a1-3)[Gal(b1-3)GlcNAc(b1-2)Man(a1-6)]Man(b1-4)GlcNAc(b1-4)[Fuc(a1-6)]GlcNAc
Summary of the method: as §1

[10] = molecular target: Gal(b1-3)GlcNAc(b1-2)Man(a1-3)[GlcNAc(b1-4)][Gal(b1-3)GlcNAc(b1-2)Man(a1-6)]Man(b1-4)GlcNAc(b1-4)GlcNAc
Summary of the method: as §1

[11] = molecular target: Gal(b1-3)GlcNAc(b1-2)[Gal(b1-3)GlcNAc(b1-6)]Man(a1-6)[Gal(b1-3)GlcNAc(b1-2)Man(a1-3)]Man(b1-4)GlcNAc(b1-4)GlcNAc
Summary of the method: as §1

[12] = molecular target: Gal(b1-3)GlcNAc(b1-3)Gal(b1-3)GlcNAc
Summary of the method: as §1

[13] = molecular target: Gal(b1-3)GlcNAc(b1-3)Gal(b1-4)Glc
Summary of the method: as §1

[14] = molecular target: Gal(b1-3)GlcNAc(b1-3)Gal(b1-4)GlcNAc
Summary of the method: as §1

[15] = molecular target: Gal(b1-3)GlcNAc(b1-3)Gal(b1-4)GlcNAc(b1-2)Man(a1-3)[Gal(b1-3)GlcNAc(b1-3)Gal(b1-4)GlcNAc(b1-2)Man(a1-6)]Man(b1-4)GlcNAc(b1-4)GlcNAc
Summary of the method: as §1

[16] = molecular target: Gal(b1-3)GlcNAc(b1-3)Gal(b1-4)GlcNAc(b1-2)[Gal(b1-3)GlcNAc(b1-3)Gal(b1-4)GlcNAc(b1-6)]Man(a1-6)[Gal(b1-3)GlcNAc(b1-3)Gal(b1-4)GlcNAc(b1-2)Man(a1-3)]Man(b1-4)GlcNAc(b1-4)[Fuc(a1-6)]GlcNAc
Summary of the method: as §1

[17] = molecular target: Gal(b1-3)GlcNAc(b1-3)Gal(b1-4)GlcNAc(b1-3)Gal(b1-4)GlcNAc(b1-2)[Gal(b1-3)GlcNAc(b1-3)Gal(b1-4)GlcNAc(b1-3)Gal(b1-4)GlcNAc(b1-6)]Man(a1-6)[Gal(b1-3)GlcNAc(b1-3)Gal(b1-4)GlcNAc(b1-3)Gal(b1-4)GlcNAc(b1-2)Man(a1-3)]Man(b1-4)GlcNAc(b1-4)[Fuc(a1-6)]GlcNAc
Summary of the method: as §1

[18] = molecular target: Gal(b1-3)GlcNAc(b1-3)Gal(b1-4)GlcNAc(b1-6)[Gal(b1-3)GlcNAc(b1-3)]Gal(b1-4)Glc
Summary of the method: as §1

[19] = molecular target: Gal(b1-3)GlcNAc(b1-3)Gal(b1-4)[Fuc(a1-3)]GlcNAc
Summary of the method: as §1

[20] = molecular target: Gal(b1-3)GlcNAc(b1-3)Gal(b1-4)[Fuc(a1-3)]GlcNAc(b1-6)[Gal(b1-3)GlcNAc(b1-3)]Gal(b1-4)Glc
Summary of the method: as §1

[21] = molecular target: Gal(b1-3)GlcNAc(b1-3)GalNAc
Summary of the method: as §1

[22] = molecular target: Gal(b1-3)GlcNAc(b1-6)Gal(b1-4)GlcNAc
Summary of the method: as §1

[23] = molecular target: Gal(b1-3)GlcNAc(b1-6)GalNAc
Summary of the method: as §1

[24] = molecular target: Gal(b1-3)GlcNAc(b1-6)[Gal(b1-3)]GalNAc
Summary of the method: as §1

Gal(b1-3)GlcNAc6S = molecular target: Gal(b1-3)GlcNAc6S
Summary of the method: as §1

[25] = molecular target: Gal(b1-3)[Fuc(a1-4)]GlcNAc
Summary of the method: as §1

[26] = molecular target: Gal(b1-3)[Fuc(a1-4)]GlcNAc(b1-2)Man
Summary of the method: as §1

[27] = molecular target: Gal(b1-3)[Fuc(a1-4)]GlcNAc(b1-2)Man(a1-3)[Gal(b1-3)[Fuc(a1-4)]GlcNAc(b1-2)Man(a1-6)]Man(b1-4)GlcNAc(b1-4)[Fuc(a1-6)]GlcNAc
Summary of the method: as §1

[28] = molecular target: Gal(b1-3)[Fuc(a1-4)]GlcNAc(b1-3)Gal(b1-3)[Fuc(a1-4)]GlcNAc
Summary of the method: as §1

[29] = molecular target: Gal(b1-3)[Fuc(a1-4)]GlcNAc(b1-3)Gal(b1-4)[Fuc(a1-3)]GlcNAc
Summary of the method: as §1

[30] = molecular target: Gal(b1-3)[Fuc(a1-4)]GlcNAc(b1-6)GalNAc
Summary of the method: as §1

[31] = molecular target: Gal(b1-3)[GlcNAc(b1-6)]GalNAc
Summary of the method: as §1

[32] = molecular target: Gal(b1-3)[Neu5Ac(a2-6)]GalNAc
Summary of the method: as §1

[33] = molecular target: Gal(b1-3)[Neu5Ac(a2-6)]GlcNAc(b1-4)Gal(b1-4)Glc
Summary of the method: as §1

[34] = molecular target: Gal(b1-3)[Neu5Ac(b2-6)]GalNAc
Summary of the method: as §1

Gal(b1-4)Gal = molecular target: Gal(b1-4)Gal
Summary of the method: as §1

[35] = molecular target: Gal(b1-4)GalNAc(a1-3)[Fuc(a1-2)]Gal(b1-4)GlcNAc
Summary of the method: as §1

B1: CGL (Crenomytilus grayanus), H2FH31 (protein)
chain: MTTFLIKHKASGKFLHPYGGSSNPANNTKLVLHSDIHERMYFQFDVVDERWGYIKHVASGKIVHPYGGQANPPNETNMVLHQDRHDRALFAMDFFNDNIMHKGGKYIHPKGGSPNPPNNTETVIHGDKHAAMEFIFVSPKNKDKRVLVYA
Gal(a1-6)Glc
  glycan array binding signal (z-score): -0.041
Gal(b1-2)Gal
  glycan array binding signal (z-score): 0.358
Gal(b1-3)Gal
  glycan array binding signal (z-score): -0.355
Gal(b1-3)Gal(b1-4)GlcNAc
  glycan array binding signal (z-score): -0.077
Gal(b1-3)GalNAc
  glycan array binding signal (z-score): -0.397
[1]
  glycan array binding signal (z-score): -0.352
[2]
  glycan array binding signal (z-score): -0.341
Gal(b1-3)GalNAc(b1-3)Gal
  glycan array binding signal (z-score): -0.324
[3]
  glycan array binding signal (z-score): -0.269
[4]
  glycan array binding signal (z-score): -0.282
[5]
  glycan array binding signal (z-score): -0.242
Gal(b1-3)GlcNAc
  glycan array binding signal (z-score): 0.242
[6]
  glycan array binding signal (z-score): 0.396
[7]
  glycan array binding signal (z-score): 0.803
Gal(b1-3)GlcNAc(b1-2)Man
  glycan array binding signal (z-score): 0.117
[8]
  glycan array binding signal (z-score): 1.39
[9]
  glycan array binding signal (z-score): 0.52
[10]
  glycan array binding signal (z-score): 0.739
[11]
  glycan array binding signal (z-score): 1.87
[12]
  glycan array binding signal (z-score): 0.665
[13]
  glycan array binding signal (z-score): 0.248
[14]
  glycan array binding signal (z-score): 0.369
[15]
  glycan array binding signal (z-score): 2
[16]
  glycan array binding signal (z-score): 1.8
[17]
  glycan array binding signal (z-score): 2.2
[18]
  glycan array binding signal (z-score): 2.44
[19]
  glycan array binding signal (z-score): 0.29
[20]
  glycan array binding signal (z-score): 0.813
[21]
  glycan array binding signal (z-score): -0.089
[22]
  glycan array binding signal (z-score): 0.949
[23]
  glycan array binding signal (z-score): -0.031
[24]
  glycan array binding signal (z-score): 0.396
Gal(b1-3)GlcNAc6S
  glycan array binding signal (z-score): 0.231
[25]
  glycan array binding signal (z-score): -0.359
[26]
  glycan array binding signal (z-score): -0.336
[27]
  glycan array binding signal (z-score): -0.341
[28]
  glycan array binding signal (z-score): -0.406
[29]
  glycan array binding signal (z-score): -0.381
[30]
  glycan array binding signal (z-score): -0.408
[31]
  glycan array binding signal (z-score): -0.34
[32]
  glycan array binding signal (z-score): -0.398
[33]
  glycan array binding signal (z-score): -0.148
[34]
  glycan array binding signal (z-score): -0.38
Gal(b1-4)Gal
  glycan array binding signal (z-score): -0.367
[35]
  glycan array binding signal (z-score): 0.737
